# From PubChem BioAssay (Tox21)
# Results filed as inconclusive are left out. Unless noted, the call rests on the fitted dose curve; in most records, active means well fitted curve in the direction sought with a large enough effect in the repeat runs; inconclusive means weak or mixed curves; inactive means no such curve, though single readings can be large; an effect the other way counts as inactive or inconclusive. More than one record can exist for a structure, and the calls need not agree. A number of entries come with more than one value. Only these are listed. The source may hold further records. The records of an entry are repeats across runs, samples, wells, individuals or studies. Marks in square brackets tell the records apart. Letters hold for one entry only.
# Columns and labels:
# [1] = qHTS assay for small molecules that induce genotoxicity in human embryonic kidney cells expressing luciferase-tagged ATAD5 - cell viability (AID 651634; calls by dose curve; further: nearly all actives have a fitted effect of over 25% in size); details: HEK293T ATAD5-luc cells viability, CellTiter-Fluor, 15.5 h; series mostly up to 83.3 µM
# Outline: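 Live-cell protease activity (CellTiter-Fluor, fluorescence) indicates viability. HEK293T cells with luciferase-tagged ATAD5; 15.5 hr compound treatment at 37C.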
# [2] = qHTS assay to identify small molecule antagonists of the androgen receptor (AR) signaling pathway using the MDA cell line - cell viability counter screen (AID 743041; further: nearly all actives have a fitted effect of over 45% in size); details: MDA-kb2 viability, CellTiter-Fluor, 16 h, cells co-treated with R1881 androgen agonist; series mostly up to 70.3 µM
# Outline: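 R1881-driven MDA-kb2 AR-luc cells, 3,000/well, were dosed with library compounds for 16 h; cell health came from CellTiter-Fluor fluorescence in the reporter wells.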
# [3] = qHTS assay to identify small molecule antagonists of the thyroid receptor (TR) signaling pathway (AID 743065); details: GH3.TRE-Luc, T3-stimulated luciferase inhibition, 23.5 h; series mostly up to 70.3 µM; further: nearly all actives have a fitted effect of over 55% in size
# Outline: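 Antagonism measured as loss of luciferase signal in GH3 cells stably carrying a TRE-luciferase reporter, co-treated with compound and T3 (1 nM final) for 23.5 h at 37 C. Viability was read in the same well by CellTiter-Fluor.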
# [4] = biological target: Peroxisome proliferator-activated receptor delta (Homo sapiens) (UniProt Q03181); assay: qHTS assay to identify small molecule agonists of the peroxisome proliferator-activated receptor delta (PPARd) signaling pathway (AID 743212; calls by dose curve); details: HEK293H PPARd-UAS-bla, beta-lactamase FRET ratio, 17 h; series mostly up to 62.6 µM
# Sequence of UniProt Q03181 (Q03181 whole entry, looked up): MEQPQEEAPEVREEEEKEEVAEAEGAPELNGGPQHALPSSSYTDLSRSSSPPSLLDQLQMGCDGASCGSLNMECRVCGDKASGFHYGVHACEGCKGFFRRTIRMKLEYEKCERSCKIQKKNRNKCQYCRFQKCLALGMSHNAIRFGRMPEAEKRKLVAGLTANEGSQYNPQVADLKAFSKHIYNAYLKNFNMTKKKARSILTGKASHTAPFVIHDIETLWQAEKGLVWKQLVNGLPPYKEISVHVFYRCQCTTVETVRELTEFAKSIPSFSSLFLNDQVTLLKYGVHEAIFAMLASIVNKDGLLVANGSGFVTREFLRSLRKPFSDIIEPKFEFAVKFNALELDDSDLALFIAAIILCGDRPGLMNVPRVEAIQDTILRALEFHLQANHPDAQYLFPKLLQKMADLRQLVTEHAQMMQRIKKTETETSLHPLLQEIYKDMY
# Outline: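 HEK293H UAS-bla reporter cells, human PPARd system; compounds delivered in DMSO after 5 h plating, then at 37 C. Beta-lactamase FRET read, 2 h RT substrate step.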
# [5] = qHTS assay to identify small molecule agonists of the constitutive androstane receptor (CAR) signaling pathway - cell viability counter screen (AID 1224836); details: HepG2-CYP2B6-hCAR viability, CellTiter-Fluor, 23 h, PK11195 added to every well; series mostly up to 92.4 µM; further: nearly all actives have a fitted effect of over 45% in size
# Outline: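 Fluorescence from CellTiter-Fluor indicates live cells after 23 h exposure. The human hepatoma line expresses hCAR and a CYP2B6-2.2kb reporter. Incubation medium contains 0.75 uM PK11195 (final).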
# [6] = qHTS assay to identify small molecule antagonists of the constitutive androstane receptor (CAR) signaling pathway - cell viability counter screen (AID 1224837); details: HepG2-CYP2B6-hCAR viability, CellTiter-Fluor, 23 h, co-treated with 50 nM CITCO; series mostly up to 92.4 µM; further: nearly all actives have a fitted effect of over 45% in size
# Outline: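 Fluorescence from CellTiter-Fluor served as the viability signal. Human hepatoma HepG2 cells stably bearing hCAR and CYP2B6-2.2kb received compound plus CITCO (50 nM final) for 23 hr.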
# [7] = qHTS assay to identify small molecule antagonists of the estrogen receptor alpha (ER-alpha) signaling pathway using the BG1 cell line in the presence of 0.1 nM 17-beta-estradiol - cell viability counter screen (AID 1259241); details: VM7Luc4E2 (BG1) viability, CellTiter-Fluor protease, 22 h, 0.1 nM estradiol agonist added; series mostly up to 92.4 µM; further: nearly all actives have a fitted effect of over 40% in size
# Outline: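 Viability in VM7Luc4E2 cells after 22 hr compound exposure under 0.1 nM 17beta-estradiol stimulation, by CellTiter-Fluor.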
# [8] = qHTS assay to identify small molecule antagonists of the progesterone receptor (PR) signaling pathway - cell viability counter screen (AID 1346798); details: PR-UAS-bla HEK293T viability, CellTiter-Glo luminescence, 16 h; series mostly up to 92.4 µM; further: nearly all actives have a fitted effect of over 50% in size
# Outline: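 Viability was determined by ATP-based luminescence (CellTiter-Glo) in PR-UAS-bla HEK293T cells cultured in 2% charcoal-stripped serum and incubated 16 hr with compounds under R5020 stimulation.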
# [9] = A CellTox Green Cytotoxicity Assay to monitor cytotoxicity in HEK293 cells - 24 hour (AID 1224875); details: CellTox Green fluorescence; series mostly up to 76.8 µM; further: nearly all actives have a fitted effect of over 45% in size
# Outline: (§1)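 Each value comes from one timepoint of a single continuous run in which HEK293 cells with CellTox Green were exposed to compound for up to 40 h at 37 C, dye fluorescence rising with cell death.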
# [10] = A CellTox Green Cytotoxicity Assay to monitor cytotoxicity in HEK293 cells - 16 hour (AID 1224888); details: CellTox Green fluorescence; series mostly up to 76.8 µM; further: nearly all actives have a fitted effect of over 35% in size
# Outline: as §1
# Potency means the concentration at half of the fitted maximal effect.
compound,measurement,setting,value
CCC(C)c1cc([N+](=O)[O-])cc([N+](=O)[O-])c1O (centres undefined),Potency,[1],inactive [sample A] and active: 8.63 µM [sample B]
same,Potency,[2],inactive [sample A] and active: 43.3 µM [sample B]
same,Potency,[3],inactive [sample A] and active: 9.69 µM [sample B]
same,Potency,[4],inactive [sample A] and active: 54.9 µM [sample B]
same,Potency,[5],inactive [sample A] and active: 19.3 µM [sample B]
same,Potency,[6],inactive [sample A] and active: 21.7 µM [sample B]
same,Potency,[7],inactive [sample A] and active: 21.7 µM [sample B]
CCCCNC(=O)n1c(NC(=O)OC)nc2ccccc21,Potency,[8],active: 48.3 µM [sample A] and inactive [sample B]
NC(=S)Nc1ccccc1,Potency,[9],active: 49.8 µM [sample A] and inactive [sample B]
same,Potency,[10],active: 49.8 µM [sample A] and inactive [sample B]
CCC(=O)O[C@H]1CC[C@H]2[C@@H]3CCC4=CC(=O)CC[C@]4(C)[C@H]3CC[C@]12C,Potency,[3],inactive [sample A] and active: 30.6 µM [sample B]
same,Potency,[10],active: 43.6 µM [sample A] and inactive [sample B]
O=Cc1ccco1,Potency,[9],active: 26.6 µM [sample A] and inactive [sample B]
same,Potency,[10],active: 26.6 µM [sample A] and inactive [sample B]
